Data: article PMC9810599
No constants are given. Whether binding was seen depends on the method and setting. In cells and extracts the contact can be indirect. Some binding calls cover weakened binding; strength is not graded here. For some assays here: Sequences can lack the tags named with a protein.

The chains behind the UniProt entries cited, without tags or fusion partners. Where a name states a change or a piece, a line headed by the entry shows the natural chain unless it says otherwise. Residues count along the entry.
UniProt P0CS90, residues 24-654: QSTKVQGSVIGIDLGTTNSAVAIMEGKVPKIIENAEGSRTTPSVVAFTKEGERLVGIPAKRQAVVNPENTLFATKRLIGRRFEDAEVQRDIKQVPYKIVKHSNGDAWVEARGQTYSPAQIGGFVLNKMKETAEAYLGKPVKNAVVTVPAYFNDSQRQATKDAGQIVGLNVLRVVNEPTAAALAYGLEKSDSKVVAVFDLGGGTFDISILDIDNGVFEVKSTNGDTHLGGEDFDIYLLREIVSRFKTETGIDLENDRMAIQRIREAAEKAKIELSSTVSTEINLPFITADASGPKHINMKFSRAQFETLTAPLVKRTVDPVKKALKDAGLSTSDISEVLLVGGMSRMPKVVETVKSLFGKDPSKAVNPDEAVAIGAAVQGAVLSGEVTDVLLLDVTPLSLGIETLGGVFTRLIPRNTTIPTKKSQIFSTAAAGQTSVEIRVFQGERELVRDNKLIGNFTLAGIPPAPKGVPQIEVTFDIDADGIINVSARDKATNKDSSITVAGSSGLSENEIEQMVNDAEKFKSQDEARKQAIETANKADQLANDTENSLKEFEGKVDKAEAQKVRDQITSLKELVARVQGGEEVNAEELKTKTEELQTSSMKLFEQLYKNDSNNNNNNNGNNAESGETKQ
UniProt P07251, residues 36-545: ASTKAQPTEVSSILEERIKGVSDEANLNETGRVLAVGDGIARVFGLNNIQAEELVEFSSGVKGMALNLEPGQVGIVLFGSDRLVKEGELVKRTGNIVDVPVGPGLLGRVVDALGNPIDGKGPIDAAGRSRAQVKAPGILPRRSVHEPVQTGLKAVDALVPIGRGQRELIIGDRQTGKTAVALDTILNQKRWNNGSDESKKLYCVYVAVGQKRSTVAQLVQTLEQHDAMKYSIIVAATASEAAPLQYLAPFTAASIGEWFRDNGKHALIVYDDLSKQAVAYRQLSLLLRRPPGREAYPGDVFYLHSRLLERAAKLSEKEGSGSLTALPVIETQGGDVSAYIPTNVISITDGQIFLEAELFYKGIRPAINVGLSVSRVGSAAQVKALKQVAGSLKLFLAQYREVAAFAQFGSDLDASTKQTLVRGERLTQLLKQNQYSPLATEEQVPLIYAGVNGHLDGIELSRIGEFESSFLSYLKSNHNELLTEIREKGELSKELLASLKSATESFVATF
UniProt P00830, residues 34-511: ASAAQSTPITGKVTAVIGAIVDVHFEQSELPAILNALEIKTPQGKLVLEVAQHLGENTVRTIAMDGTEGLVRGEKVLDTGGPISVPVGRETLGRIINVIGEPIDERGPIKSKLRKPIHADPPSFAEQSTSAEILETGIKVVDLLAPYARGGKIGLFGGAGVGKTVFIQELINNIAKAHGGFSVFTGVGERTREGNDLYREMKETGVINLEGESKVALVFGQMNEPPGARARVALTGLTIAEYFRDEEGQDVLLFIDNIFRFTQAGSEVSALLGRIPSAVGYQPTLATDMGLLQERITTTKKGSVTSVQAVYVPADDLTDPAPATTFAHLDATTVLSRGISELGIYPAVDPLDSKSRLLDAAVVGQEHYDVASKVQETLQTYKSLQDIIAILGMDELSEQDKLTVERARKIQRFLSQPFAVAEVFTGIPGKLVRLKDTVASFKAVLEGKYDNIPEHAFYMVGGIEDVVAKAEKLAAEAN

What was measured:
[1] = biological target: T1, His-tagged Atp12 (Atp12His) (S. cerevisiae) (UniProt P22135); test: pull-down; Atp11His or Atp12His purified on Ni-NTA agarose from mitochondrial lysates pre-incubated with ATP (20 mM ATP pH 7.5 in lysis buffer); SDS-PAGE and immunodetection
T1 sequence: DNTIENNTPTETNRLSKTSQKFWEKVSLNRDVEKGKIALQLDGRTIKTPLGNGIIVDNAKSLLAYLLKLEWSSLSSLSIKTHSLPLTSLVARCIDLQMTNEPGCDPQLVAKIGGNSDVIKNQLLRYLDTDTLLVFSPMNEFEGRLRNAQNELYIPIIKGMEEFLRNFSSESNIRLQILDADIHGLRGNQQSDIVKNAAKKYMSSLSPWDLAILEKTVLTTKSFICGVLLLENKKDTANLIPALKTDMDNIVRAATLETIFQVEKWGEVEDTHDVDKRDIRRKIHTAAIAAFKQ

[2] = biological target: T1, His-tagged Atp12 (Atp12His) (S. cerevisiae); test: pull-down; Atp11His or Atp12His purified on Ni-NTA agarose from digitonin-lysed mitochondria without added ATP; also in the ssc1-62 background after shift to non-permissive conditions; SDS-PAGE and immunodetection
[3] = biological target: T2, His-tagged Ina22 (Ina22His) (S. cerevisiae) (UniProt P40576); test: pull-down; Ina17His or Ina22His purified on Ni-NTA agarose from digitonin-lysed mitochondria; also with pre-incubation of the lysate with ATP and with elution of bound proteins by 20 mM ATP; SDS-PAGE and immunodetection
T2 sequence: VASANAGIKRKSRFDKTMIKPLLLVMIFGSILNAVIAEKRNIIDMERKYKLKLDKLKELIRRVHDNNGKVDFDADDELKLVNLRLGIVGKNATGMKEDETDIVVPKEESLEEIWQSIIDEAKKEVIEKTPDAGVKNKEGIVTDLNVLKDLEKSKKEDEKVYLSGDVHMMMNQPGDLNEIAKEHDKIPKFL

[4] = biological target: T3, His-tagged Ina17 (Ina17His) (S. cerevisiae) (UniProt Q02888); test: as above
T3 sequence: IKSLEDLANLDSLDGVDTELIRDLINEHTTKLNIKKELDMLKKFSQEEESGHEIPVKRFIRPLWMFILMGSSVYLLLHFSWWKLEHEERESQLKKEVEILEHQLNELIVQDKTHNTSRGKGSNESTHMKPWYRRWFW

[5] = biological target: mitochondrial Hsp70 (mtHsp70), wild type (S. cerevisiae (endogenous in yeast mitochondria)) (UniProt P0CS90); test: pull-down; mtHsp70 with its bound proteins captured on Mge1His-coated Ni-NTA agarose from digitonin lysates of mitochondria (wild type, ρ0, atp3∆, atp4∆, atp5∆, atp7∆, atp14∆, ina17∆, ina22∆, ssc1-62, cells overexpressing Atp5 or Atp5^G183A); SDS-PAGE and immunodetection
[6] = biological target: T4, Tim17His (His-tagged Tim17) (S. cerevisiae) (UniProt P39515); test: pull-down; mitochondria with the His-tagged bait lysed in 1% digitonin (20 mM Tris/HCl pH 7.4, 0.1 mM EDTA, 50 mM NaCl, 10% glycerol, 10 mM imidazole), bound to Ni-NTA agarose 1 h at 4 °C, washed with 40 mM imidazole, eluted with 250 mM imidazole; SDS-PAGE and immunodetection; WT mitochondria as control
T4 sequence: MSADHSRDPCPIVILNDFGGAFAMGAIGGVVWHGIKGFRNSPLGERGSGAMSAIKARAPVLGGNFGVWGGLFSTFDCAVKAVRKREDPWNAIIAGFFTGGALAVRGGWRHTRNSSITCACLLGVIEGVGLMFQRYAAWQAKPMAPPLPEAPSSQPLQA

[7] = biological target: His-tagged mitochondrial Hsp70 (mtHsp70His) (S. cerevisiae) (UniProt P0CS90); test: pull-down; mtHsp70His purified on Ni-NTA agarose from digitonin-lysed ρ+ and ρ0 mitochondria, in the absence of ATP; SDS-PAGE and immunodetection
[8] = biological target: T5, His-tagged Atp11 (Atp11His) (S. cerevisiae) (UniProt P32453); test: pull-down; Atp11His or Atp12His purified on Ni-NTA agarose from digitonin-lysed mitochondria without added ATP; also in the ssc1-62 background after shift to non-permissive conditions; SDS-PAGE and immunodetection
T5 sequence: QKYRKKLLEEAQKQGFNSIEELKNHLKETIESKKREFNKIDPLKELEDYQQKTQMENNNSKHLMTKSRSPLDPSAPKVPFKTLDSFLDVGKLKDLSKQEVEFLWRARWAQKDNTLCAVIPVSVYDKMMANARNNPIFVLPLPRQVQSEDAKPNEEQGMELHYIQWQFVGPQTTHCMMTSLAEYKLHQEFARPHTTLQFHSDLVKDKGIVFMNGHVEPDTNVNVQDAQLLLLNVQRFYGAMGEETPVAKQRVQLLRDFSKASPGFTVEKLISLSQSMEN

[9] = biological target: T5, His-tagged Atp11 (Atp11His) (S. cerevisiae); test: condition: only preincubation of mitochondrial lysates with ATP (20 mM ATP pH 7.5); pull-down; Atp11His or Atp12His purified on Ni-NTA agarose from mitochondrial lysates pre-incubated with ATP (20 mM ATP pH 7.5 in lysis buffer); SDS-PAGE and immunodetection
[10] = biological target: T1, His-tagged Atp12 (Atp12His) (S. cerevisiae); test: as above
[11] = biological target: His-tagged Atp1 (Atp1His) (S. cerevisiae) (UniProt P07251); test: pull-down; Atp1His purified on Ni-NTA agarose from lysed mitochondria; immunoblotting

Row | binding [1] | binding [2] | binding [3] | binding [4] | binding [5] | binding [6] | binding [7] | binding [8] | binding [9] | binding [10] | binding [11] | Substance
1 | binds | binds | binds | binds | binds | no binding | binds |  |  |  |  | Atp1 (subunit α of the ATP synthase) (from UniProt P07251 36-545)
2 |  |  | binds | binds | binds | no binding | binds | binds | no binding |  |  | Atp2 (subunit β of the ATP synthase) (from UniProt P00830 34-511)
3 |  |  |  |  |  | binds |  |  |  |  |  | mitochondrial Hsp70 (mtHsp70) (from UniProt P0CS90 24-654)
4 |  | binds |  |  |  |  |  | binds | no binding | no binding | binds | mitochondrial Hsp70 (mtHsp70), wild type (from UniProt P0CS90 24-654)
